# From the supplement of paper PMC10986608
# The other results are listed elsewhere or left out. Most values come without repeats; read them as rough.
# System: Candida albicans DPL-15
# Experiment: growth (OD600) after compound treatment (apparently relative to screen median) (relative growth (fraction; screen median 1.02)); DPL-15 is a caspofungin-resistant clinical isolate; higher = more fungal growth (less antifungal activity)
# Settings: 25 µM; RPMI 1640; 48 h; 30 °C
row,SMILES,growth
1,COc1cc(OC)c2c(=O)c3ccc(OC)c(O)c3oc2c1,0.866
2,COc1ccc(Cn2nc(-c3ccccc3)cc2Nc2cc(O)cc(O)c2C(=O)NCc2ccccc2)cc1,1
3,CCC(=O)Cc1cc(O)cc(O)c1C(=O)N(C)Cc1ccccc1,1.22
4,CCCCCCC12C(=Cc3cc4c(cc31)OCCO4)c1cc(OC)c(OC)cc1C(CC(=O)OC)N2C(=O)OC (configuration not stated),1.16
5,COc1cccc(C2NC(=S)N(CC(C)C)C(C)=C2C(C)=O)c1 (configuration not stated),0.971
6,CC(C)(C)c1ccc2c(c1)[C@]1(Cc3occc(=O)c3OS(C)(=O)=O)CCCCC1=N2,0.998
7,COc1cc([C@@H]2[C@@H](C(=O)NC3CCCC3)[C@@H](C(=O)NC3CCCC3)[C@@H]2c2ccc(O)c(OC)c2)ccc1O,1.06
8,C=CCC[C@@H](O)COc1cc2c(cc1C1(c3cc4c(cc3OC[C@H](O)CCC=C)OCO4)C(=O)Nc3ccc(C)cc31)OCO2,1.16
9,COc1ccc(Cn2nc(-c3ccccc3)cc2N)cc1,0.957
10,CC(C)CC1=NCCNC2=C1C(c1ccc3c(c1)OCO3)N(c1ccccc1)C2=O (configuration not stated),0.938
11,CC(=O)OC[C@]12CC[C@@H](C(C)=O)[C@@H]1[C@H]1CC[C@@H]3[C@@]4(C)CC[C@H](O)[C@](C)(O)[C@@H]4CC[C@@]3(C)[C@]1(C)CC2,1.15
12,C#CCOc1cccc(CNC(=O)C2CCCN(CCc3ccccc3C)C2)c1 (configuration not stated),1.19
13,CC(C)CCc1cc(OCC(=O)O)cc2oc3ccccc3c(=O)c12,1.03
14,COc1ccc([C@@]23Oc4cc(OC)cc(OC)c4[C@]2(O)[C@H](O)[C@H](C(=O)c2ccc(C)o2)[C@H]3c2ccccc2)cc1,1.14
15,O=C(Nc1ncccc1OCc1ccccc1)OCC(Cl)(Cl)Cl,1.03
16,Cn1nc(-c2ccccc2)c2c1C(=O)N(c1ccccc1)C2c1ccc2c(c1)OCO2 (configuration not stated),0.954
17,CCCCCCC12C(=Cc3cc4c(cc31)OCCO4)c1cc(OC)c(OC)cc1C(CCO)N2C (configuration not stated),1.13
18,C/C=C/C=C/C(=O)c1cc(C)c(O)c(C)c1O,0.713
19,COc1cc(/C=C/c2cc(/C=C/c3ccc(O)c(OC)c3)[nH]n2)ccc1O,1.06
20,CCC1=C(C(=O)OC)C(c2ccccc2)NC(=O)N1 (configuration not stated),1.22
21,Cc1cc(Nc2cc(O)cc(O)c2C(=O)N2CC[C@H](F)C2)n(C)n1,1.16
22,COC(=O)C1=C[C@H]([C@@H](C)[C@H](OC)c2ccccc2Br)[C@H]2c3ccccc3O[C@@H]12,1.17
23,CO[C@H]1CCN(C(=O)c2c(O)cc(O)cc2Nc2c(C)nn(C)c2C)C1,1.18
24,COc1ccc(O)c2c(=O)n(C)c(C)cc12,1.21
25,CC(C)(C)NS(=O)(=O)N(CCC1CCCC1)C(=O)OC(C)(C)C,1.1
26,c1ccc([C@@H]2CC(c3ccccc3)(c3ccccc3)Oc3cc4c(cc32)OCO4)cc1,0.95

row,SMILES,growth
1,C/C=C/C=C/C(=O)c1c(O)c(C)c(O)c(C)c1-c1c(O)cc(C)oc1=O,1.09
2,O=c1c2ccccc2oc2cc(O)cc(O)c12,0.843
3,COc1ccc([C@H]2O[C@@H](c3ccc4c(c3)OCO4)[C@@H](C)[C@H]2C)cc1OC,0.944
4,CO[C@@H]1[C@H](O)CC[C@]2(O)CN(CCCOC(C)C)[C@](C)([C@H](O)CC=C(C)C)[C@@H]12,1.07
5,C#CCC(C)(C)CNC(=O)CC1(CNC(=O)c2cccc(/C=N/N=C/c3cccc(C(=O)NCC4(CC(=O)NCC(C)(C)CC#C)CCCCC4)c3)c2)CCCCC1,1.19
6,COC(=O)C1=C(C)N(Cc2ccc(C(F)(F)F)cc2)C(NCCCOC(C)C)=NC1c1ccc(Cl)cc1 (configuration not stated),0.989
7,Nc1c(-c2ccc(F)nc2)cnc2c(-c3ccc(Cl)cc3)cnn12,1.17
8,COC(=O)C1=C(C)N(CCc2cccs2)C(NCc2ccccc2)=NC1c1ccc(C)cc1 (configuration not stated),1.19
9,Cc1cc(Cl)nc(CCCc2ccccc2)c1,1.13
10,Cc1ccc(S(=O)(=O)N2CCCC3OCCCC3=C2c2cccs2)cc1 (configuration not stated),0.967
11,Cc1nn(C)c2c1C(c1ccc(Br)cc1)NC2=O (configuration not stated),1.04
12,COc1ccc(N2C(=O)c3[nH]nc(CC(C)C)c3C2c2ccccc2)cc1 (configuration not stated),0.822
13,C#CCC(C)(C)CNC(=O)CC1(CNC(=O)Cn2cccc2/C=N/NS(=O)(=O)c2ccc(C)cc2)CCCCC1,1.01
14,COc1ccc(Cn2nc(C)cc2Nc2cc(O)cc(O)c2C(=O)N2Cc3ccc(OCCN(C)C)cc3C2)cc1,1.15
15,Cc1cc(C)cc(-n2nc(CC(C)C)c3c2C(=O)NC3c2ccc(Br)cc2)c1 (configuration not stated),0.948
16,CC(C)(C)c1ccc(C#C[C@@H]2C=C[C@@H](OC(=O)NCc3ccccc3)[C@@H](CO)O2)cc1,1.05
17,COc1ccc2c(c1)-c1c(OC)cc(OC)c3c1C(C)(O2)Oc1ccc(OC)cc1-3,1.09
18,COCOc1ccc(Br)cc1C(=O)/C=C/c1ccc2c(c1)OCO2,1.08
19,CCc1cc2c(nc1CC)CCCN2S(=O)(=O)c1c(C)noc1C,0.914
20,C=CCNC1=NC(c2ccccc2)C(C(=O)OC)=C(C)N1C (configuration not stated),0.997
21,COc1ccc(N2C(=O)c3[nH]nc(CC(C)C)c3C2C2CCCCC2)cc1F (configuration not stated),1.21
22,COc1ccccc1Cn1nc(C(C)C)c2c1C(=O)NC2c1cccc(C(F)(F)F)c1 (configuration not stated),0.967
23,CC1(C)CN=C(c2ccccc2)C2=C(N1)C(=O)N(c1ccccc1)C2c1ccccc1 (configuration not stated),1.08
24,COc1ccc([C@@]23Oc4cc(OC)cc(OC)c4[C@]2(O)[C@H](O)[C@H](C(=O)N(C)OC)[C@H]3c2ccsc2)cc1,1.16
25,CCOc1cc2c(cc1C1(c3cc4c(cc3OCC)OCO4)C(=O)Nc3cc(F)ccc31)OCO2,0.892
26,CN(Cc1ccccc1)CC1CCCN(CCc2ccccn2)C1 (configuration not stated),1.01
